# From the supplement of paper PMC8728848
# The list shows a part of the results.
# B1: Epa1-NP-mutant-Y228W (Candida glabrata), Q6VBJ0 (protein)
# chain: MILNPALFLNKCVCIYTTLILLLLTNGGYATSSNDISLASKDPTTFPLGCSPDITTPKKGLSMELYSYDFRKKGSYPCWDAAYLDPNYPRTGYKSHRLLAKVDGVTGNINFYYHATKGCTPQLGHLPASYNYPKPLTMTNFTMLLYGYFRPKVTGFHTFTISADDLLFVNFGAGNAFDCCRRDSSADHFGNYQAYAIWGSKTAKDELTVHLDAGVYYPIRLFYNNREWDGALSFTFKTESNENTVSDFSEYFFSLDDTEEGCPGLISYDSSCASVKTSKIIGIDYHTETPNENLVPITKTIYHLGIPCTGTTTTPLCGSGFYDPLANKCVTINTSSTSSVTKTTSHTTSKEVSFHSSISSQKTLIPKSIPSPYGPIKSQSIPTEMETSSEISSSEYAFSDVISTPSHSPYTKKHSSLNSSSYTSTVIHSLTSYSISQGIFSTSLSEQNITSKSSTDKFSTATSMSNNITQSSIIISQFSTNNENYTTTSMHTSSDKISTETLNNSISTTTSILFSNSSTILKNNTTIISSDKDTHYHPVNPTIVCSTNKTEIICASITQPSISNSNNHWSSSVLKFNSTTVRSTLPSSAGSNETSINVPFSSSTESNTSTSSTSTSNSKMVRSTLPSSAGSNETSISVPFSSSTESNTSTSSTSTSNSKMVRSTLPSSAGSNETSINVPFSSSTESNTSTSSTSTSNSKTVRSTPFSSAGIIMTSLSQRNNKSASSYASSNSKCYNTADSCRKVHSTPSYLLTSSYTSEGVDYDCSLVSTKLKINDTNCVNNKHTTKSCLKTSVTTTIPTLEIKTARKSSSNTIGLHSYPTSSPNKSISSAPIIGYISSFKTIKTASPSYQTSDLTTITTITSLNNPGSTAVENTHESNDKSRKTSSNDISSKHSVIKETKDAVESSNKSHQTNTLKCSSIIIASSSHNSYESLGGTTLTLTLSKVYSPQNNDTLPFLEISEVNPSRTVLPESSKMMQYLTSTEERNKTARNTIATNIVSISTFHFEGEGNAIRMGYTQLLLMLIGIIVMNIGT
# Assays:
# Test in all cases: glycan array binding signal (z-score within array); higher = stronger binding
# Conditions in all cases: glycan notation: IUPAC condensed, linker removed; mutation: Y228W
# [1] = target: Gal3S(b1-3)[Fuc(a1-4)]GlcNAc
# Procedure, shortened: (§1)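 Glycan array data came from 3228 arrays in the Consortium for Functional Glycomics database, and only arrays with an available protein sequence were kept. Glycan names were put into IUPAC-condensed notation, and columns mapping to the same glycan were averaged. The binding signal is a within-array Z-score, averaged across arrays of one protein sequence run at different concentrations or buffers and across linkers. A negative Z-score can be read as non-binding.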
# Gal3S(b1-4)Glc = target: Gal3S(b1-4)Glc
# Procedure, shortened: as §1
# Gal3S(b1-4)Glc6S = target: Gal3S(b1-4)Glc6S
# Procedure, shortened: as §1
# Gal3S(b1-4)GlcNAc = target: Gal3S(b1-4)GlcNAc
# Procedure, shortened: as §1
# [2] = target: Gal3S(b1-4)[Fuc(a1-3)]Glc6S
# Procedure, shortened: as §1
# [3] = target: Gal3S(b1-4)[Fuc(a1-3)]GlcNAc
# Procedure, shortened: as §1
# [4] = target: Gal3S(b1-4)[Fuc(a1-3)]GlcNAc6S
# Procedure, shortened: as §1
# Gal3S4S(b1-4)GlcNAc = target: Gal3S4S(b1-4)GlcNAc
# Procedure, shortened: as §1
# Gal3S6S(b1-4)GlcNAc = target: Gal3S6S(b1-4)GlcNAc
# Procedure, shortened: as §1
# Gal3S6S(b1-4)GlcNAc6S = target: Gal3S6S(b1-4)GlcNAc6S
# Procedure, shortened: as §1
# Gal4S(b1-4)GlcNAc = target: Gal4S(b1-4)GlcNAc
# Procedure, shortened: as §1
# Gal4S6S(b1-4)GlcNAc = target: Gal4S6S(b1-4)GlcNAc
# Procedure, shortened: as §1
# Gal6P(b1-4)GlcNAc = target: Gal6P(b1-4)GlcNAc
# Procedure, shortened: as §1
# Gal6S(b1-3)GlcNAc = target: Gal6S(b1-3)GlcNAc
# Procedure, shortened: as §1
# Gal6S(b1-3)GlcNAc6S = target: Gal6S(b1-3)GlcNAc6S
# Procedure, shortened: as §1
# Gal6S(b1-4)Glc = target: Gal6S(b1-4)Glc
# Procedure, shortened: as §1
# Gal6S(b1-4)Glc6S = target: Gal6S(b1-4)Glc6S
# Procedure, shortened: as §1
# Gal6S(b1-4)GlcNAc = target: Gal6S(b1-4)GlcNAc
# Procedure, shortened: as §1
# Gal6S(b1-4)GlcNAc6S = target: Gal6S(b1-4)GlcNAc6S
# Procedure, shortened: as §1
# GalNAc(a1-3)Gal = target: GalNAc(a1-3)Gal
# Procedure, shortened: as §1
# GalNAc(a1-3)GalNAc = target: GalNAc(a1-3)GalNAc
# Procedure, shortened: as §1
# [5] = target: GalNAc(a1-3)GalNAc(b1-3)Gal(a1-4)Gal(b1-4)Glc
# Procedure, shortened: as §1
# [6] = target: GalNAc(a1-3)GalNAc(b1-3)Gal(a1-4)Gal(b1-4)GlcNAc
# Procedure, shortened: as §1
# GalNAc(b1-3)Gal = target: GalNAc(b1-3)Gal
# Procedure, shortened: as §1
# [7] = target: GalNAc(b1-3)Gal(a1-4)Gal(b1-4)GlcNAc
# Procedure, shortened: as §1
# [8] = target: GalNAc(b1-3)Gal(a1-4)Gal(b1-4)GlcNAc(b1-3)Gal(b1-4)Glc
# Procedure, shortened: as §1
# [9] = target: GalNAc(b1-3)Gal(a1-6)Gal(b1-4)Glc
# Procedure, shortened: as §1
# GalNAc(b1-3)GalNAc = target: GalNAc(b1-3)GalNAc
# Procedure, shortened: as §1
# GalNAc(b1-3)GlcNAc = target: GalNAc(b1-3)GlcNAc
# Procedure, shortened: as §1
# GalNAc(b1-4)Gal(b1-4)Glc = target: GalNAc(b1-4)Gal(b1-4)Glc
# Procedure, shortened: as §1
binder,measurement,setting,value
B1,glycan array binding signal (z-score),[1],0.037
same,glycan array binding signal (z-score),Gal3S(b1-4)Glc,0.028
same,glycan array binding signal (z-score),Gal3S(b1-4)Glc6S,-0.121
same,glycan array binding signal (z-score),Gal3S(b1-4)GlcNAc,-0.29
same,glycan array binding signal (z-score),[2],0.488
same,glycan array binding signal (z-score),[3],-0.19
same,glycan array binding signal (z-score),[4],-0.015
same,glycan array binding signal (z-score),Gal3S4S(b1-4)GlcNAc,-0.353
same,glycan array binding signal (z-score),Gal3S6S(b1-4)GlcNAc,-0.07
same,glycan array binding signal (z-score),Gal3S6S(b1-4)GlcNAc6S,-0.037
same,glycan array binding signal (z-score),Gal4S(b1-4)GlcNAc,-0.096
same,glycan array binding signal (z-score),Gal4S6S(b1-4)GlcNAc,-0.424
same,glycan array binding signal (z-score),Gal6P(b1-4)GlcNAc,-0.168
same,glycan array binding signal (z-score),Gal6S(b1-3)GlcNAc,-0.267
same,glycan array binding signal (z-score),Gal6S(b1-3)GlcNAc6S,0.205
same,glycan array binding signal (z-score),Gal6S(b1-4)Glc,0.635
same,glycan array binding signal (z-score),Gal6S(b1-4)Glc6S,1.09
same,glycan array binding signal (z-score),Gal6S(b1-4)GlcNAc,0.31
same,glycan array binding signal (z-score),Gal6S(b1-4)GlcNAc6S,3.63
same,glycan array binding signal (z-score),GalNAc(a1-3)Gal,-0.128
same,glycan array binding signal (z-score),GalNAc(a1-3)GalNAc,-0.17
same,glycan array binding signal (z-score),[5],-0.397
same,glycan array binding signal (z-score),[6],-0.245
same,glycan array binding signal (z-score),GalNAc(b1-3)Gal,-0.214
same,glycan array binding signal (z-score),[7],0.025
same,glycan array binding signal (z-score),[8],-0.295
same,glycan array binding signal (z-score),[9],-0.203
same,glycan array binding signal (z-score),GalNAc(b1-3)GalNAc,-0.323
same,glycan array binding signal (z-score),GalNAc(b1-3)GlcNAc,-0.269
same,glycan array binding signal (z-score),GalNAc(b1-4)Gal(b1-4)Glc,0.075
